Laboratory results published in PubChem BioAssay AID504339 (National Center for Advancing Translational Sciences (NCATS), 2011).
Out of some 390,000 compounds screened, about 17,000 (4.4%) were called active. Inconclusive results, whose numbers are uncertain, are shown with a selection of clear calls. The call rests on the fitted dose curve; in most records, active means well fitted inhibition curve with a large enough effect; inconclusive means small, poorly fitted or top-dose-only effect; inactive means no such curve, though single readings can be large or run the other way. Where the call is inconclusive, the potency comes from a doubtful curve fit.

Each compound was assayed against Lysine-specific demethylase 4A (Homo sapiens) (UniProt O75164) (assay: qHTS Assay for Inhibitors of JMJD2A-Tudor Domain). Conditions: AlphaScreen JMJD2A-Tudor / H3K4me3 peptide binding; series mostly up to 114 µM.
Chain of UniProt O75164 (O75164 whole entry, looked up, the tested form may be a part): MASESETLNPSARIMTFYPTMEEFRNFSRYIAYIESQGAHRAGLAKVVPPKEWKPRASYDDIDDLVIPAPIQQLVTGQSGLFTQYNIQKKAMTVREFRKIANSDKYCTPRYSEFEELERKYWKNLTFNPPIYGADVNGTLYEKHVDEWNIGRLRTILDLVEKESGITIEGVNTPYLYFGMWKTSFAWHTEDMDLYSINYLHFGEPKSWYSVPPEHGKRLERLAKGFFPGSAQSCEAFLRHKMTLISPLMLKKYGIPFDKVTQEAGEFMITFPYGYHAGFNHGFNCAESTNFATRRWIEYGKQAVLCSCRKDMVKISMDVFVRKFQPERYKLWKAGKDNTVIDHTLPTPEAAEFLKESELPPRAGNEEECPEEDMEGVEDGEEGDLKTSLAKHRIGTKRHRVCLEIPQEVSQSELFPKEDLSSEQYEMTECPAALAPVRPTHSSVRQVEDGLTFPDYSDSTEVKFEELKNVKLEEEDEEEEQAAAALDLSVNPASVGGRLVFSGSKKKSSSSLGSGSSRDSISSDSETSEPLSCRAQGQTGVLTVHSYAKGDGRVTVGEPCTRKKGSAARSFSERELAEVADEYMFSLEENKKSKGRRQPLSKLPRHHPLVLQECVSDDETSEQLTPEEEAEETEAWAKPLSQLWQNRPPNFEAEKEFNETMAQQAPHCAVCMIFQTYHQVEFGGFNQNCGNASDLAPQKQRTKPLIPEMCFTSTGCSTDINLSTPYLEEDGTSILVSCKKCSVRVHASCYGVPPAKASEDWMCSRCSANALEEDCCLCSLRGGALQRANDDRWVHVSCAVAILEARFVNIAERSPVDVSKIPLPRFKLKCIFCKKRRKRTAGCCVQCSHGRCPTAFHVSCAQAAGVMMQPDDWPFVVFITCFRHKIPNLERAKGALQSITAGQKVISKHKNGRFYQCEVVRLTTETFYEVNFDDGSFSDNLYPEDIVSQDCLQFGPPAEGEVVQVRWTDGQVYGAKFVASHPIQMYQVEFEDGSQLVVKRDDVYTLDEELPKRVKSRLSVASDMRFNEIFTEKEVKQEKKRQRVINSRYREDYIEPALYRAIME
Further: nearly all actives have a fitted effect of over 50% in size.
Potency means the concentration at half of the fitted maximal effect; tags describe the fitted curve by direction and shape.

Potency, inactive:
COCCN(C(=O)COC(=O)c1ccccc1Nc1ccccc1)c1c(N)n(Cc2ccccc2)c(=O)[nH]c1=O
CCN1C(=O)[C@H]2[C@@H](c3ccc(-c4ccc(Cl)c(Cl)c4)cc3)N[C@@](Cc3ccccc3)(C(=O)OC)[C@H]2C1=O
COc1cc(-c2noc(-c3ccc(N4CCOCC4)c([N+](=O)[O-])c3)n2)cc(OC)c1OC
Cn1nccc1C(=O)N/N=C/c1ccccc1[N+](=O)[O-]
COc1cc(C(C(=O)NC(C)(C)C)N(Cc2ccccc2)C(=O)c2cnccn2)cc(OC)c1OC (configuration not stated)
CN(Cc1ccccc1)C(C(=O)NC1CCCCC1)c1ccc(Cl)cc1 (configuration not stated)
NC(N)=NCCC[C@H](NC(=O)CNC(=O)c1ccccc1)C(=O)Nc1cc(C(F)(F)F)ccc1Cl
O=C(COC(=O)c1cccc([N+](=O)[O-])c1)NCC1CCCO1 (configuration not stated)
CC1(C)CC(=O)C(C(C2=C(O)CC(C)(C)CC2=O)c2ccc(O)c([N+](=O)[O-])c2)=C(O)C1
CCOc1cc(C2C(C#N)=C(N)OC(C)=C2C(C)=O)c(Br)c(Br)c1OC(C)C (configuration not stated)
COc1ccc2cc3cc(C(=O)NCCc4ccccc4)sc3nc2c1Cl
CCCCNc1nc(C#N)nc(Nc2ccccc2)n1
O=C1C=C(c2ccc(-c3ccccc3)cc2)C[C@@H](c2ccc3c(c2)OCO3)C1
OCCNCCCOc1ccc(Cl)cc1Br
COc1cccc(C(=O)N(Cc2cccc(Cl)c2)Cc2ccco2)c1
COc1ccc(NC(=O)CC(CC(=O)O)c2cc(OC)c(OC)c(OC)c2)cc1 (configuration not stated)
CSc1cccc(NC(=O)c2ccc3c(c2)c(C)c(C)n3Cc2ccc(F)cc2)c1
Cc1ccc(CN2CCC(CNC(=O)Nc3c(C)cccc3C)C2)cc1 (configuration not stated)
COc1ccccc1-c1c(C)nn2c(C(F)(F)F)cc(-c3ccccc3)nc12
CCC1(CC)Cc2ccccc2C(=C(C#N)C#N)N1
O=C(NCc1nnnn1-c1cccc(F)c1)c1ccc(S(=O)(=O)N2CCOCC2)cc1
[O-]C(=C(C(=S)Nc1cccc2ccccc12)[n+]1cccc(CO)c1)c1ccc(Cl)s1
Cc1ccccc1S(=O)(=O)NNC(=O)C(=O)NNc1ccccn1

Potency, inconclusive:
Cc1ccc2c(c1)c1c(n2CC(O)Cn2nc(C)c(Br)c2C)CCCC1 (configuration not stated) 44.7 µM [inhibitor, partial curve]
Nc1cc(-c2cccc(F)c2)nn1S(=O)(=O)c1cccc2nsnc12 50.1 µM [inhibitor, partial curve]
CCN(CC)c1ccc(C(=S)NCc2ccccc2)cc1 50.1 µM [inhibitor, partial curve]
COc1ccc(NC(=S)NC(NC(=O)c2ccccc2Cl)C(Cl)(Cl)Cl)c([N+](=O)[O-])c1 (configuration not stated) 20 µM [inhibitor, full curve]
NS(=O)(=O)c1ccc(NN=C2CCCCC2)c([N+](=O)[O-])c1 56.2 µM [inhibitor, partial curve]
Cc1cc(C)cc(NC(=O)C(=O)NCCc2c[nH]c3ccccc23)c1 28.2 µM [inhibitor, partial curve]
CCN(CCCNC(=O)CSc1cc(=O)n(C)c2cc(Cl)ccc12)c1cccc(C)c1 8.91 µM [inhibitor, partial curve]
C=CCc1ccccc1OCC(=O)OCCNC(=O)c1cccnc1 89.1 µM [inhibitor, single point]
O=C(Cc1ccccc1)NCCCNC(=O)Cc1ccccc1 100 µM [inhibitor, partial curve, poor fit]
COc1ccc(N2CCN(C(=O)COC(=O)c3oc4ccccc4c3C)CC2)cc1 22.4 µM [inhibitor, full curve]
C=CC[C@H]1CC(Cc2ccccc2)=C[C@H](CC=C)N1 20 µM [inhibitor, single point]
COC(=O)C(Cc1c[nH]c2ccccc12)NC(=O)C(=O)c1c[nH]c2ccccc12 (configuration not stated) 31.6 µM [inhibitor, partial curve]
CN(C)c1ccc(S(=O)(=O)NCC(=O)NCc2ccccc2)cc1[N+](=O)[O-] 44.7 µM [inhibitor, partial curve]
CCOC(=O)CNC(=S)n1ncnc1N 39.8 µM [inhibitor, single point]
COc1ccc(N(CC(=O)N/N=C/c2ccc3c(c2)OCO3)S(=O)(=O)c2ccc(NC(C)=O)cc2)cc1 12.6 µM [inhibitor, partial curve]
CC(=O)c1ccc2c(c1)C1C=CCC1C(c1ccncc1)N2 (configuration not stated) 50.1 µM [inhibitor, partial curve]
Cc1ccc(C(=O)CC(SCC(=O)O)c2ccc([N+](=O)[O-])cc2)cc1 (configuration not stated) 56.2 µM [inhibitor, partial curve]
CC1CCN(S(=O)(=O)c2cc([N+](=O)[O-])ccc2Cl)CC1 56.2 µM [inhibitor, partial curve]
O=C(O)c1ccc2c(c1)C(=O)N(Cc1ccccc1)C2=O 89.1 µM [inhibitor, single point]
O=C(NN=C1CCCCCCC1)c1ccccn1 2.51 µM [inhibitor, full curve, poor fit]
COc1ccc(C2C(C(=O)c3ccco3)=C(O)C(=O)N2Cc2cccnc2)cc1OC (configuration not stated) 89.1 µM [inhibitor, single point]
Cc1ccccc1-c1n[nH]c(=S)n1Cc1ccccc1 10 µM [inhibitor, partial curve]
c1ccc(-c2nc(NCCCn3ccnc3)c3ccccc3n2)cc1 56.2 µM [inhibitor, partial curve]
NC(=S)NN=C1c2cc(OCCN3CCOCC3)ccc2-c2ccc(OCCN3CCOCC3)cc21 0.708 µM [inhibitor, full curve, poor fit]
Cc1ccc2nc(/C(C#N)=C/c3ccc(-c4ccc(F)cc4F)o3)[nH]c2c1 22.4 µM [inhibitor, full curve]
O=C(C[n+]1cc(Br)cc(Br)c1)c1ccc(-c2ccccc2)cc1 63.1 µM [inhibitor, partial curve]
COCCNCc1ccccc1 39.8 µM [inhibitor, single point]
CN(C)c1ccc(/C=C(\C#N)c2nc3ccccc3c(=O)[nH]2)cc1 89.1 µM [inhibitor, partial curve]
O=[N+]([O-])c1ccccc1S(=O)(=O)N1CCN(Cc2cc3c(cc2O)OCO3)CC1 39.8 µM [inhibitor, partial curve]
Cc1cc(C)c(NC(=O)CN(C)S(=O)(=O)c2ccc3c(c2)n(C)c(=O)c(=O)n3C)c(C)c1 3.55 µM [inhibitor, single point]
N=c1c2c(-c3ccccc3)c(-c3ccccc3)oc2ncn1Cc1ccco1 39.8 µM [inhibitor, partial curve]
CCOc1ccc(NC(=O)NCCCN2CCN(c3ccc(OC)cc3)CC2)cc1 11.2 µM [inhibitor, full curve]
COc1cccc(C2C(C(C)=O)=C(O)C(=O)N2CCc2c[nH]c3ccccc23)c1 (configuration not stated) 89.1 µM [inhibitor, single point]
CCN(CC)C(=O)c1cnn(-c2ccccc2)c1NC(=O)c1ccccc1F 100 µM [inhibitor, single point]
COC(=O)C(C)N1C(=O)S/C(=C/c2cc(C)n(C(C)C)c2C)C1=O (configuration not stated) 22.4 µM [inhibitor, full curve]
COc1ccc(Nc2nc(-c3c(C)nc4ncccn34)cs2)cc1 50.1 µM [inhibitor, partial curve]
CC(C)CCn1c(SCCN2CCOCC2)nc2c1c(=O)[nH]c(=O)n2C 79.4 µM [inhibitor, single point]
CC(=O)c1cnc2nc(SCc3ccc(C)cc3)nn2c1C 20 µM [inhibitor, full curve, poor fit]

Potency, active:
CCC1C/C(=C\c2cc(OC)c(OC)cc2OC)C(=O)/C(=C/c2cc(OC)c(OC)cc2OC)C1 (configuration not stated) 17.8 µM
C=CCn1c(-c2cnn(-c3ccccc3)c2N)n[nH]c1=S 3.98 µM
COc1ccc(OCC(=O)N2CCc3c([nH]c4ccccc34)C2c2ccccn2)cc1 (configuration not stated) 56.2 µM
CCCCCNCC(=O)Nc1cccc(C(=O)Nc2cccc(C(F)(F)F)c2)c1 5.01 µM
CCOCc1nnc(NC(=O)c2cc(C(=O)OC)cc([N+](=O)[O-])c2)s1 44.7 µM
CCCOc1ccc(C(=O)NNC(=S)NC(=O)CC)cc1 31.6 µM
CC(Cc1n[nH]c(=S)n1N)c1ccccc1 (configuration not stated) 3.16 µM
COc1ccc([N+](=O)[O-])cc1NS(=O)(=O)c1cccc(C(=O)O)c1 31.6 µM
NC(=O)c1ccsc1NC(=O)COc1ccccc1 50.1 µM
Cc1cc(=O)c(C(=O)O)cn1Nc1ccc(F)cc1 50.1 µM
O=[N+]([O-])c1ccccc1N=Nc1ccc(O)cc1O 56.2 µM
